# This is one part of the list. Viral Rep nickase domains cut single-stranded DNA in vitro at 3 µM enzyme and 37 °C for 1 h; the strands have 90 letters, of which the middle is given. Numbers give uncut DNA relative to the enzyme-free pool, as log2; more negative means more cut, near 0 not cut, and no call is made. Reads are scaled to the total, so uncut sequences can rise above 0 when many others are cut.
# Tests used:
# Experiment in all cases: uncleaved DNA left, log2 of reads against the no-enzyme library (log2 ratio); higher = less cleavage (more negative = more Rep cleavage of the k-mer); sequences stand for … in CTCGTCCG…ACCGGAGA
# [1] = system: T1, Rep nickase domain of Muscovy duck circovirus
# T1 sequence (residues 1-111 of Rep, tag left off): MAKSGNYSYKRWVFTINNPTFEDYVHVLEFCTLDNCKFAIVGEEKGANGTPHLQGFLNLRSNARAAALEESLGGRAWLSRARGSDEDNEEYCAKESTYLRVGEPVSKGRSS
# Protocol: (§1)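 A pool of 90-nt single-stranded DNAs with seven random bases just before the constant AC of the nick site (name = the seven bases) was cut by 3 µM recombinant His6-SUMO-tagged Rep nickase domain (300 nM DNA, 50 mM HEPES pH 8.0, 50 mM NaCl, 1 mM MnCl2, 1 h, 37 °C, three replicates). Uncut DNA was amplified and sequenced.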
# [2] = system: T2, Rep nickase domain of banana bunchy top virus
# T2 sequence (residues 1-94 of Rep, tag left off): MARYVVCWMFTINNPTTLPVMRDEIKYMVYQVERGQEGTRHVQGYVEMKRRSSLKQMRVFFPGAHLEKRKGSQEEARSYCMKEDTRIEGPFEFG
# Protocol: as §1
# [3] = system: T3, Rep nickase domain of cabbage leaf curl virus
# T3 sequence (residues 1-116 of Rep, tag left off): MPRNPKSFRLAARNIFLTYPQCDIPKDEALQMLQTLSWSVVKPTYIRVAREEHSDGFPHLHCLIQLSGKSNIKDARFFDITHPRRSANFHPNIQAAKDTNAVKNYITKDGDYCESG
# Protocol: as §1
# [4] = system: T4, Rep nickase domain of chickpea chlorotic dwarf virus
# T4 sequence (residues 1-124 of Rep, tag left off): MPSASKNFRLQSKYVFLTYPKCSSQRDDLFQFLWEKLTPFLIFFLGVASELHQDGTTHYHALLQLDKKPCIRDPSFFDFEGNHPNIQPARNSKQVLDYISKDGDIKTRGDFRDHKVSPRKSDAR
# Protocol: as §1
# [5] = system: T5, Rep nickase domain of faba bean necrotic yellows virus
# T5 sequence (residues 1-98 of Rep, tag left off): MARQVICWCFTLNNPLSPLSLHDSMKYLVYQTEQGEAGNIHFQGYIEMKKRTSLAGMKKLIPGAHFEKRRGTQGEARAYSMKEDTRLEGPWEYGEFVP
# Protocol: as §1
# [6] = system: T6, Rep nickase domain of maize striate mosaic virus
# T6 sequence (residues 1-117 of Rep, tag left off): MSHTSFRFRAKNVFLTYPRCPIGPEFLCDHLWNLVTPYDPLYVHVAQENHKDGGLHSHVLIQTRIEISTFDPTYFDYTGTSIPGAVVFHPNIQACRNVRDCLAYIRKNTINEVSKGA
# Protocol: as §1
# [7] = system: T7, Rep nickase domain of porcine circovirus 2
# T7 sequence (residues 2-116 of Rep, tag left off): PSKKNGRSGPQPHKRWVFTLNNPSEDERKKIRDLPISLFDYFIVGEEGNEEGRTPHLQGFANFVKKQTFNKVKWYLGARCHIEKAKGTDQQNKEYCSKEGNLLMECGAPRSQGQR
# Protocol: as §1
# [8] = system: T8, Rep nickase domain of tomato yellow leaf curl virus
# T8 sequence (residues 1-136 of Rep, tag left off): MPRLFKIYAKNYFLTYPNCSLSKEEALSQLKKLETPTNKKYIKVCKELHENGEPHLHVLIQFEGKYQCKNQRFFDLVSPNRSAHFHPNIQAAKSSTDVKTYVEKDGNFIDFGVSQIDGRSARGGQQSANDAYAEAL
# Protocol: as §1
# [9] = system: T9, Rep nickase domain of wheat dwarf virus
# T9 sequence (residues 1-137 of Rep, tag left off): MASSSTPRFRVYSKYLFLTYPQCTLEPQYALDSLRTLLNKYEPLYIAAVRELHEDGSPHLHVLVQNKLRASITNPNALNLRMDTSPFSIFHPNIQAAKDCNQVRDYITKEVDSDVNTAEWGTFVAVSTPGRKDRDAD
# Protocol: as §1
Sequence,uncleaved DNA left (log2) [1],uncleaved DNA left (log2) [2],uncleaved DNA left (log2) [3],uncleaved DNA left (log2) [4],uncleaved DNA left (log2) [5],uncleaved DNA left (log2) [6],uncleaved DNA left (log2) [7],uncleaved DNA left (log2) [8],uncleaved DNA left (log2) [9]
CAGACTC,0.0167,-0.0196,0.136,0.444,0.0147,0.555,-0.204,-0.0223,0.0744
TACCCAT,0.0354,-0.0712,-1.04,-2.78,0.034,-0.767,-1.22,0.0836,0.057
CTACAAA,-0.0763,0.00642,-0.0917,-1.21,-0.0259,-0.748,0.12,-0.102,0.07
TAGTTTG,-0.00407,-0.109,-0.433,-0.647,0.0235,-1.09,-2.82,0.0278,-0.0973
TTCTGTG,-0.0165,-0.0386,-0.881,-0.519,0.0827,-0.967,0.1,-0.0312,-0.0567
ACTGCTC,0.00279,0.0645,-0.0344,0.129,0.0507,-0.279,0.0063,0.0814,0.0206
ACATGGT,-0.276,0.0158,-0.289,-0.556,0.017,-0.673,-0.5,0.00706,0.0348
CGGTTAG,0.0716,0.0339,-0.536,-0.189,0.105,-0.763,0.299,0.112,-0.0517
CCTACCG,-0.247,-0.183,-1.02,-1.98,-0.185,-1.16,-0.148,-0.136,-0.395
AGGCCGG,0.257,0.101,0.422,0.973,0.197,1.07,0.2,0.0982,0.135
CGTGAGC,-0.0557,-0.049,0.012,0.254,-0.00264,-0.298,-0.0602,-0.0975,0.00564
CGTGTTC,-0.0111,0.00586,0.105,-0.132,-0.0562,0.116,-0.112,0.0926,-0.0735
AATGACT,0.0938,0.0064,0.0908,-0.596,0.0312,0.689,-0.011,0.0266,0.156
AAACGAG,-0.117,-0.0428,-0.117,-0.0986,0.0226,-0.874,0.0765,-0.0751,0.00762
ACTAGAT,-0.176,-0.0379,-0.172,0.0156,-0.0393,-0.305,-0.305,-0.254,-0.0318
CGAGAGG,0.0638,0.192,0.193,0.794,0.0958,0.619,0.214,0.22,0.184

Sequence,uncleaved DNA left (log2) [1],uncleaved DNA left (log2) [2],uncleaved DNA left (log2) [3],uncleaved DNA left (log2) [4],uncleaved DNA left (log2) [5],uncleaved DNA left (log2) [6],uncleaved DNA left (log2) [7],uncleaved DNA left (log2) [8],uncleaved DNA left (log2) [9]
TGTTCTG,-0.00356,-0.175,-0.0937,0.133,-0.0191,0.365,-0.00619,-0.0163,-0.0892
CTTGGCT,-0.00676,-0.0531,-0.434,-1.36,-0.00745,-1.2,-0.0895,-0.0428,-0.0406
CGCGCCT,-0.112,-0.0174,-0.0935,-0.513,0.0316,-0.138,-0.0777,-0.0178,-0.00279
TCTGCGT,0.0341,-0.162,-0.806,-0.0852,-0.00778,-0.943,-0.0981,-0.15,-0.154
CCGATGA,-0.0335,-0.107,0.205,0.487,-0.0419,-0.0623,0.0732,-0.0464,-0.0503
ATTGATT,-1.07,-0.898,-0.136,-1.94,0.0516,-0.164,-2.6,-0.0478,-0.107
ACTAAGA,-0.0017,-0.0185,-0.0825,-0.199,0.0878,-0.93,0.197,-0.0377,-0.0227
CTCCAGT,-0.0224,0.0251,-0.182,-0.876,-0.141,-0.861,-0.231,0.105,-0.0176
TGCGGAA,-0.0433,0.00957,-0.239,-0.166,0.0689,-0.5,-0.00242,0.0459,-0.00258
AATTCTT,-3.28,-3.64,-1.39,-2.84,-0.6,-0.735,-4.45,-0.0594,-0.512
TCAATCA,0.166,0.149,0.205,-0.992,0.17,0.702,0.121,0.293,0.272
TCCGGGA,-0.0367,-0.104,0.459,0.868,-0.0621,1.64,0.0958,0.0585,0.0165
CTGAATA,0.0679,0.118,-0.17,-0.953,0.194,-0.408,0.121,0.133,0.0602
GCGTGCC,0.0127,-0.0923,0.115,0.373,-0.0403,0.043,0.0639,-0.0276,-0.0252
CAGGTTG,0.0909,-0.107,-0.0402,0.426,-0.116,0.131,0.19,-0.138,-0.184
TGTTACA,-0.431,-0.0879,-2.38,-1.98,-0.186,0.191,-2.97,0.0921,-2.01

# From the supplement of paper PMC7826260
